# Assay results taken from publication PMC12136788.
# Numbering of substitutions follows the chain as printed. The list shows a part of the results.
# B1: chr6:122458524:122458701:-|CDS|ENSG00000111897|unk|total|mutant (ssRNA)
# RNA: GGGAGUUCUACAGUCCGACGAUCGGAAGUGCCCCGUGUUUGCUAUGCCGAUGCUGUCCCCGUGGAAACAACUCCACUGUAACCCGAUUGAUCUAUGCACUUUUCUUGCUUGUUGGAGUAUGUGCCGCUUGUGUAAUGUUGAUACAACAGAGGAUUGAGCAUCA
# B2: ENSG00000107863:be:win_3151|CDS|ENSG00000107863|bound_else_gene|NA|bound_elsewhere_windowed (ssRNA)
# RNA: GGGAGUUCUACAGUCCGACGAUCAGGGAUCUAAUUAGUCGAAGAAUAAAAGAAUACAACAAUCUGAUGAGCAAAGCAGAACAGUUGCCAAAAACACCUCGCCAGAGUCUCAGCAUCAGGCAAACUUUGCUUGGUGCUAAAUCACAACAGAGGAUUGAGCAUCA
# B3: chr10:30820206:30820444:-|three_prime_utr|ENSG00000183621|control|control|control (ssRNA)
# RNA: GGGAGUUCUACAGUCCGACGAUCCUUAUCUAAUCUCCAAAUGAAGAAUGGGCCCAUCUGACAUAUCCUAUGAGCACAAAGCUUAGGGGACUCUUCACCGAAACCUAGACAAAUAUUUGAAUGCAUUUUUUUUUUUUUUUUUUGCAACAGAGGAUUGAGCAUCA
# B4: chr6:106663037:106663138:+|CDS|ENSG00000130348|msi1|FALSE|unique (ssRNA)
# RNA: GGGAGUUCUACAGUCCGACGAUCAGCACAGAAAGUGAGACGCCUCAUUGCUAAUGACUUUGUAAAUGCUUUUAACUCUGGAGUAGAUGUCUUGCUAACUCCCACCACCUUGAGUGAGGCAGUACCAUACUUGGAGUUCAUCAACAACAGAGGAUUGAGCAUCA
# B5: chr7:44121865:44121972:-|CDS|ENSG00000106628|unk|total|mutant (ssRNA)
# RNA: GGGAGUUCUACAGUCCGACGAUCGUGCCAGUGGCAACCUACACCAACUCCUCACAACCCUUCCGGCCCGGAGAGCGCAGCUUCCGCCGGCAGUAUGCCCACAUUUAUGCCACCCGCCUCAUCCAAAUGAGACCCUUCCUGGAGCAACAGAGGAUUGAGCAUCA
# B6: chr11:8104520:8104621:+|3pUTR|ENSG00000166402|msi1|total|mutant (ssRNA)
# RNA: GGGAGUUCUACAGUCCGACGAUCGGCAAUCAGCAAUCAACUGAGGUUUCUUAAUUGUGAUUAUAUUCCUGAGAAUGAAUGAGCCGGAAAGGAAUAAGGAUGUUGUUAUGAUCGCCUGUGGAUUUUGUCCAUUCAUCUCAUGCUCAACAGAGGAUUGAGCAUCA
# B7: chr8:93922960:93923061:+|CDS|ENSG00000164951|msi1|total|mutant (ssRNA)
# RNA: GGGAGUUCUACAGUCCGACGAUCCGGCUCAUGGUCAGCAGUCACGCUGUCUAAUGACCACAAUGCUCAAAAUGAAAGAGAACCCGAACGGCUGAAAUUGGAACAUCCAAAGAGUGAGGCCAAGAGUGUCGUGAAACAGGAUCGCAACAGAGGAUUGAGCAUCA
# B8: chr15:50499066:50499164:+|CDS_3pUTR|ENSG00000138592|msi1_unk|total|mutant (ssRNA)
# RNA: GGGAGUUCUACAGUCCGACGAUCUACUUCAUUGGGACCACGAGUAACUGAUGCCGCCACAUAAGGAGACACCGGUUAUAAACCCGUUAUCUUUUAAAAGGCUCAGCAACACAACUCUUGAAAUGCUUAUCAGGAUAAUGGCCGCAACAGAGGAUUGAGCAUCA
# B9: chr13:49912701:49915062:-|three_prime_utr|ENSG00000123178|control|control|control (ssRNA)
# RNA: GGGAGUUCUACAGUCCGACGAUCACUUGUAUUUCUGCACUGUUAAAAAAUGUUCAUCAUUUAAUAAAACUUUACCUGGCCUAUAGAUGAAAAUAUAUUCUUAAAAAUAUGCUUGUUGAUGCUGUCUAAGGAACCAAUGUAUUCCAACAGAGGAUUGAGCAUCA
# B10: chr20:3864521:3864622:+|CDS|ENSG00000088888|msi1|FALSE|bound_elsewhere (ssRNA)
# RNA: GGGAGUUCUACAGUCCGACGAUCGCCCUGAAAGUGCCUGCCAACCCAGCAUCUGUCAGCACAGUGCCCUCCAAGUUGCCAACUAGCUCAAAGCCCCCUGGUGCAGUGCCUUCUAAUGCGCUCACCAAUCCAGCACCAUCCAAACAACAGAGGAUUGAGCAUCA
# B11: chr1:213241816:213241921:+|CDS|ENSG00000136643|unk|total|mutant (ssRNA)
# RNA: GGGAGUUCUACAGUCCGACGAUCGAGAAACACUAUGCACAGGAGGAUCCCAGGAUGUUAUUUGCCGCAGCUGUUGAUCACCGCCGUUCAGGAGAUAUGUCUUUGUUACCCAGCUCAGAUCCUAAGUUUCAAGGACUUGGAGUGCAACAGAGGAUUGAGCAUCA
# B12: chr13:19993219:19993350:+|CDS|ENSG00000121741|unk|FALSE|unique (ssRNA)
# RNA: GGGAGUUCUACAGUCCGACGAUCUGAUGAUGAUGUUGUUUUUAUCGAACCUGUACAACCUCCCCCACCUUCUGUACCAGUGGUAGCUGAUCAAAGAACCAUAACAUUUACAUCAUCAAAAAAUGAAGAACUACAAGGAAAUGACAACAGAGGAUUGAGCAUCA
# B13: chr10:62095068:62095169:+|3pUTR|ENSG00000150347|msi1|total|mutant (ssRNA)
# RNA: GGGAGUUCUACAGUCCGACGAUCCCAUUUGCUUCAAUUAAUUAUUUACCUUCCUGUGGAAUAAUAUAUAUAUAUAUAUUUAACCGAACCACCGACCGACCCGCCGAAUUCCGAUUAUAAAUGUGUGAGUGCAGAUUAUCCUGCCAACAGAGGAUUGAGCAUCA
# B14: chr11:111497102:111497409:-|CDS|ENSG00000137707|control|control|control (ssRNA)
# RNA: GGGAGUUCUACAGUCCGACGAUCGCCGUUAGUAGAGCCUCAUCAGACGUUUCCUCUGGCACUUCCUGCGAUGAAGAAAGUUGUAGCAAGGAACCUCGUGUCAUUCCUAAAGUCAGCAAUCCGAAGAGUAUUUAUCAGGUCAAGCAACAGAGGAUUGAGCAUCA
# B15: chr5:72207278:72207408:+|3pUTR|ENSG00000131711|msi1_unk|total|mutant (ssRNA)
# RNA: GGGAGUUCUACAGUCCGACGAUCAGAGAACAAUGACCUCAUUUUAUUUUCUAUGUCCGUUAUUUAUUUCAAAAUUAACAUUUCCGUUGAUUUUUGUCUGAUAAGUCUAUGUUUUGCACUGCUAACUAUGAUGAGGGUUUAAAACAACAGAGGAUUGAGCAUCA
# B16: ENSG00000131504:stop:overlap|stop_codon|ENSG00000131504|stop_codon|NA|stop_codon (ssRNA)
# RNA: GGGAGUUCUACAGUCCGACGAUCAGGAGGAGGAGACCUUUAAAUUGCCAACAGGAAGGCCGGGUGUGCAGUCACAUCUCUGCUAGCUUCGGAGCUGACCAAGGAUGAUGCCAUGGCUGCUGUUCCUGCCAAGGUGUCCAAGAACAACAGAGGAUUGAGCAUCA
# B17: chr6:21231557:21231658:+|3pUTR|ENSG00000145996|msi1|total|mutant (ssRNA)
# RNA: GGGAGUUCUACAGUCCGACGAUCAAGCCGCUGGGAUUACAGGCAUGCGCCACCAAGCCCAGACAAUUUUUUUGUGUUUUCAGCCGAGACGGAGUUUCACCAUGUUGGCCAGGCCCGUCUCGAACUCCUGACCUCAAGUGAUCCCAACAGAGGAUUGAGCAUCA
# B18: chr10:96982068:96982170:+|CDS|ENSG00000196233|unk|total|mutant (ssRNA)
# RNA: GGGAGUUCUACAGUCCGACGAUCUCAGCAUUGGCAUCAGAGGCAGUUUUCACUCCUAAGCAGACCCUUACAAUUCCAGCCCCCCGACAUACAGCCGAUGUGCAGCUUCCCAGAGAAGACAACCCUGAAGAACCCCGCAAGGAACAACAGAGGAUUGAGCAUCA
# B19: chr20:45898604:45898705:+|3pUTR|ENSG00000064601|unk|FALSE|unique (ssRNA)
# RNA: GGGAGUUCUACAGUCCGACGAUCAGAGCCCUGUACAUCCCAGACUGGGCCCAGGGUCUCCCAUAGACAGCCUGGGGGCAAGUUAGCACUUUAUUCCCGCAGCAGUUCCUGAAUGGGGUGGCCUGGCCCCUUCUCUGCUUAAAGCAACAGAGGAUUGAGCAUCA
# B20: chr6:89084018:89084151:+|CDS|ENSG00000146278|unk|total|mutant (ssRNA)
# RNA: GGGAGUUCUACAGUCCGACGAUCACUGAAGUGAGCCAAAAGGAAAAUUAUGCUGGGGCAAAGUUCCGUGAUCCACCUUCUCCCCGUGUUCUUCCAAAGCCUCCCCGUCACUGGAUGGGAAGCACUGUUGAAAAUUCCAACCAACAACAGAGGAUUGAGCAUCA
# B21: chr6:106663037:106663138:+|CDS|ENSG00000130348|msi1|total|mutant (ssRNA)
# RNA: B4 RNA with U83C, A84C
# B22: chr10:128098466:128098636:-|3pUTR|ENSG00000148773|msi1|total|mutant (ssRNA)
# RNA: GGGAGUUCUACAGUCCGACGAUCUCCUUUCCUUUCUGAAAAUAAAGUUUUGUGCUUUGGAGAAUGACUCGUGAGCACAUCUUCCGGGACCAAGAGUGACUUUCUGUAAGGAGUGACUCGUGGCUUGCCUUGGUCUCUUGGGAACAACAGAGGAUUGAGCAUCA
# Molecular target: MSI1 full-length (mouse, UniProt Q61474 1-362)
# Chain of UniProt Q61474 (Q61474 whole entry): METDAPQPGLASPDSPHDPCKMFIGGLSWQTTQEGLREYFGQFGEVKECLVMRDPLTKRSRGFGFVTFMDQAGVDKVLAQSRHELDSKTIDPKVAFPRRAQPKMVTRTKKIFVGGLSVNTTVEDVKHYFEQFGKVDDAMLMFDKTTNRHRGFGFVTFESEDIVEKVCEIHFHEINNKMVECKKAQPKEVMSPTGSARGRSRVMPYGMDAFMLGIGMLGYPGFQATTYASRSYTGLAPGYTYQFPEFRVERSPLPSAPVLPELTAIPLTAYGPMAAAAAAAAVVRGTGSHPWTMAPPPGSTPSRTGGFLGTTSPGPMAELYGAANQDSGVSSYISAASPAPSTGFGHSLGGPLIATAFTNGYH
# Assay: nsRBNS (natural sequence RNA bind-n-seq); RBNS binding buffer (assumed for nsRBNS): 25 mM Tris pH 7.5, 150 mM KCl, 3 mM MgCl2, 0.01% Triton X-100, 500 ug/ml BSA, 20 U/ml SUPERase-In, 4 C; UNK is unkempt and MSI1 is Musashi-1; names of the RNAs are library labels; protein concentration not given here; high values mean tight binding
row,Binder,binding signal [enrichment R]
1,B1,0.329
2,B2,1.19
3,B3,1.77
4,B4,0.397
5,B5,0.621
6,B6,0.186
7,B7,0.449
8,B8,0.332
9,B9,0.998
10,B10,0.651
11,B11,0.466
12,B12,0.466
13,B13,9.42
14,B14,0.862
15,B15,0.411
16,B16,0.458
17,B17,0.337
18,B18,0.742
19,B19,0.656
20,B20,0.315
21,B21,0.409
22,B22,0.344
